This note sets out measurements from patent US20110091463A1 (AbbVie / Abbott, published 2011).

One test addresses T1, IL-6R on TF-1 cells (UniProt P08887 20-468, limits assumed).
T1 sequence (looked up): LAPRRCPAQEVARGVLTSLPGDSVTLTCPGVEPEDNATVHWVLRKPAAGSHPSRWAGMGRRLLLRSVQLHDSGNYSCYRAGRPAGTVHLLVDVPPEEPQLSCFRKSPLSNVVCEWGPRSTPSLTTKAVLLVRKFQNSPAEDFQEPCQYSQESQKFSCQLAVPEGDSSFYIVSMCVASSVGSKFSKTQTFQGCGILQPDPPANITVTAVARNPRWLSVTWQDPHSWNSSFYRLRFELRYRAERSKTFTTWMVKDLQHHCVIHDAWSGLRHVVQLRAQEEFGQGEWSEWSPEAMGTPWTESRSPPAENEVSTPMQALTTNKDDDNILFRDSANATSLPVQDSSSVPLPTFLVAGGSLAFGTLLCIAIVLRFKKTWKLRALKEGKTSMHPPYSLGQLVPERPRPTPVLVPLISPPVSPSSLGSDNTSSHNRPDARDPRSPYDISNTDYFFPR
Briefly: cell-based or functional assay.

Test [1] deals with NGF (Neuroscreen-1 bioassay). Briefly: cell-based or functional assay.
The target in another test is T2, Recombinant Human β-NGF (human, UniProt P01138 part only).
T2 construct: Bought reagent
Briefly: SPR (Biacore), DVD-Ig captured on chip, antigen injected, 25 C. The protocol:
The BIACORE assay (Biacore, Inc, Piscataway, N.J.) determines the affinity of antibodies or DVD-Ig with kinetic measurements of on-rate and off-rate constants. Binding of antibodies or DVD-Ig to a target antigen (for example, a purified recombinant target antigen) is determined by surface plasmon resonance-based measurements with a Biacore® 1000 or 3000 instrument (Biacore® AB, Uppsala, Sweden) using running HBS-EP (10 mM HEPES [pH 7.4], 150 mM NaCl, 3 mM EDTA, and 0.005% surfactant P20) at 25° C. All chemicals are obtained from Biacore® AB (Uppsala, Sweden) or otherwise from a different source as described in the text. For example, approximately 5000 RU of goat anti-mouse IgG, (Fcγ), fragment specific polyclonal antibody (Pierce Biotechnology Inc, Rockford, Ill.) diluted in 10 mM sodium acetate (pH 4.5) is directly immobilized across a CM5 research grade biosensor chip using a standard amine coupling kit according to manufacturer's instructions and procedures at 25 μg/ml. Unreacted moieties on the biosensor surface are blocked with ethanolamine. Modified carboxymethyl dextran surface in flowcell 2 and 4 is used as a reaction surface. Unmodified carboxymethyl dextran without goat anti-mouse IgG in flow cell 1 and 3 is used as the reference surface. For kinetic analysis, rate equations derived from the 1:1 Langmuir binding model are fitted simultaneously to association and dissociation phases of all eight injections (using global fit analysis) with the use of Biaevaluation 4.0.1 software. Purified antibodies or DVD-Ig are diluted in HEPES-buffered saline for capture across goat anti-mouse IgG specific reaction surfaces. […] The association and dissociation rate constants, kₒₙ (M⁻¹ s⁻¹) and koff (s⁻¹) are determined under a continuous flow rate of 25 μl/min. […] The equilibrium dissociation constant (M) of the reaction between antibodies or DVD-Igs and the target antigen is then calculated from the kinetic rate constants by the following formula: KD=koff/kₒₙ. Binding is recorded as a function of time and kinetic rate constants are calculated.
(Surface plasmon resonance follows binding to a sensor surface in real time, without labels.)

What is called Kd is the constant that tells how readily two partners part at equilibrium. One may read the koff as the first-order rate constant of dissociation. As a reminder, the kon is the second-order rate constant of association.

Recombinant Human β-NGF, sequence (P01138 122-241 limits assumed): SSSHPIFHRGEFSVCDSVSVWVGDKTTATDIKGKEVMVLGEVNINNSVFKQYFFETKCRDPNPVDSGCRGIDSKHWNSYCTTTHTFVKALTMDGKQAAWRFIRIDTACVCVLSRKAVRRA

B1: DVD1219 (bispecific antibody, human IgG1, kappa)
heavy: EVQLQESGPGLVRPSQTLSLTCTVSGYSITSDHAWSWVRQPPGRGLEWIGYISYSGITTYNPSLKSRVTMLRDTSKNQFSLRLSSVTAADTAVYYCARSLARTTAMDYWGQGSLVTVSSASTKGPQVQLQESGPGLVKPSETLSLTCTVSGFSLIGYDLNWIRQPPGKGLEWIGIIWGDGTTDYNSAVKSRVTISKDTSKNQFSLKLSSVTAADTAVYYCARGGYWYATSYYFDYWGQGTLVTVSS[human IgG1 constant region not written out]
light: DIQMTQSPSSLSASVGDRVTITCRASQDISSYLNWYQQKPGKAPKLLIYYTSRLHSGVPSRFSGSGSGTDFTFTISSLQPEDIATYYCQQGNTLPYTFGQGTKVEIKRTVAAPDIQMTQSPSSLSASVGDRVTITCRASQSISNNLNWYQQKPGKAPKLLIYYTSRFHSGVPSRFSGSGSGTDFTFTISSLQPEDIATYYCQQEHTLPYTFGQGTKLEIKRTVAAPSVFIFPPSDEQLKSGTASVVCLLNNFYPREAKVQWKVDNALQSGNSQESVTEQDSKDSTYSLSSTLTLSKADYEKHKVYACEVTHQGLSSPVTKSFNRGEC
notes: DVD-Ig; also called DVD1219H; DVD1219L
B1: the “N-Terminal VD IL-6 Inhibition Assay EC50 µM (IL-6 induced pSTAT3 in TF-1 cells)” value with IL-6R on TF-1 cells stood at 0.0142 µM. The “C-Terminal VD NGF Inhibition Assay EC50 pM (ERK1/2 phosphorylation in Neuroscreen-1 cells)” value in test [1] is above 5000 pM. Further, in the test with Recombinant Human β-NGF, the Kd was 0.491 nM, the koff stood at 0.000179 s⁻¹ and the kon amounted to 365000 M⁻¹ s⁻¹.

B2: DVD1218 (bispecific antibody, human IgG1, kappa)
heavy: QVQLQESGPGLVKPSETLSLTCTVSGFSLIGYDLNWIRQPPGKGLEWIGIIWGDGTTDYNSAVKSRVTISKDTSKNQFSLKLSSVTAADTAVYYCARGGYWYATSYYFDYWGQGTLVTVSSASTKGPEVQLQESGPGLVRPSQTLSLTCTVSGYSITSDHAWSWVRQPPGRGLEWIGYISYSGITTYNPSLKSRVTMLRDTSKNQFSLRLSSVTAADTAVYYCARSLARTTAMDYWGQGSLVTVSS[human IgG1 constant region not written out]
light: DIQMTQSPSSLSASVGDRVTITCRASQSISNNLNWYQQKPGKAPKLLIYYTSRFHSGVPSRFSGSGSGTDFTFTISSLQPEDIATYYCQQEHTLPYTFGQGTKLEIKRTVAAPDIQMTQSPSSLSASVGDRVTITCRASQDISSYLNWYQQKPGKAPKLLIYYTSRLHSGVPSRFSGSGSGTDFTFTISSLQPEDIATYYCQQGNTLPYTFGQGTKVEIKRTVAAPSVFIFPPSDEQLKSGTASVVCLLNNFYPREAKVQWKVDNALQSGNSQESVTEQDSKDSTYSLSSTLTLSKADYEKHKVYACEVTHQGLSSPVTKSFNRGEC
In the case of B2, the “C-Terminal VD IL-6 Inhibition Assay EC50 µM (IL-6 induced pSTAT3 in TF-1 cells)” value with IL-6R on TF-1 cells is 0.202 µM. For the same molecule, in test [1], the “N-Terminal VD NGF Inhibition Assay EC50 pM (ERK1/2 phosphorylation in Neuroscreen-1 cells)” value is 67.5 pM.

B3: DVD1206 (bispecific antibody, human IgG1, kappa)
heavy: EVQLVESGGGLVQPGGSLRLSCAASGFSLTNNNVNWVRQAPGKGLEWVGGVWAGGATDYNSALKSRFTISRDNSKNTAYLQMNSLRAEDTAVYYCARDGGYSSSTLYAMDAWGQGTLVTVSSASTKGPEVQLQESGPGLVRPSQTLSLTCTVSGYSITSDHAWSWVRQPPGRGLEWIGYISYSGITTYNPSLKSRVTMLRDTSKNQFSLRLSSVTAADTAVYYCARSLARTTAMDYWGQGSLVTVSS[human IgG1 constant region not written out]
light: DIQMTQSPSSLSASVGDRVTITCRASEDIYNALAWYQQKPGKAPKLLIYNTDTLHTGVPSRFSGSGSGTDYTLTISSLQPEDFATYFCQHYFHYPRTFGQGTKVEIKRTVAAPDIQMTQSPSSLSASVGDRVTITCRASQDISSYLNWYQQKPGKAPKLLIYYTSRLHSGVPSRFSGSGSGTDFTFTISSLQPEDIATYYCQQGNTLPYTFGQGTKVEIKRTVAAPSVFIFPPSDEQLKSGTASVVCLLNNFYPREAKVQWKVDNALQSGNSQESVTEQDSKDSTYSLSSTLTLSKADYEKHKVYACEVTHQGLSSPVTKSFNRGEC
As to B3, the “C-Terminal VD IL-6 Inhibition Assay EC50 µM (IL-6 induced pSTAT3 in TF-1 cells)” value with IL-6R on TF-1 cells came out at 0.103 µM. Further, in test [1], the “N-Terminal VD NGF Inhibition Assay EC50 pM (ERK1/2 phosphorylation in Neuroscreen-1 cells)” value was 7.5 pM.
